Assay results: PubChem BioAssay (Tox21)
Some structures have more than one record in an assay (separate samples or runs), and their calls can disagree. Not every entry of the source has a single result; some have several. The other results are left out here. Calls follow the shape of the full dose curve. An entry can have further records. Results that share an entry are repeats (runs, samples, wells, individuals or studies). What stands in brackets tells the records apart. Letters count within one entry.

Each compound was assayed against Gonadotropin-releasing hormone receptor (Homo sapiens) (UniProt P30968) (assay: Human gonadotropin-releasing hormone receptor (GnRHR) small molecule agonists, calcium flux assay in GnRHR-HEK293 cells (AID 1920063; also: nearly all actives have a fitted effect of over 35% in size)). Settings: calcium flux fluorescence, agonist mode; series mostly up to 26.4 µM.
UniProt P30968, sequence (P30968 whole entry, looked up): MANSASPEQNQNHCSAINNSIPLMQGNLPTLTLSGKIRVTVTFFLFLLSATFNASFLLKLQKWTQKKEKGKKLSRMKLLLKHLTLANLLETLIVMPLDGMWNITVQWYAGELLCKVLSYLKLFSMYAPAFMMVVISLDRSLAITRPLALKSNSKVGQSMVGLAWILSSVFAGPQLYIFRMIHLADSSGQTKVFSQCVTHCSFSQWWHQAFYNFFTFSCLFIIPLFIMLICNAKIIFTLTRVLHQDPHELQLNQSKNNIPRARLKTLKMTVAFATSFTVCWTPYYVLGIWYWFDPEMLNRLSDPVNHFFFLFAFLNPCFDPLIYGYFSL
How it was run: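 Calcium-dye fluorescence, Ex/Em=480/540, recorded every 1 sec over 3 min after compound addition to GnRHR-HEK293 cells. Cells had been seeded 18 hours earlier and dye-loaded for 1 hour at 37 C. Fifteen concentrations, triplicates.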
Potency is read from the fitted curve at half-maximal effect.

Row | Structure (SMILES) | Potency
1 | Oc1c(Cl)cc(Cl)cc1Sc1cc(Cl)cc(Cl)c1O | active: 39 µM [sample A] and active: 38.9 µM [sample B] and inactive [sample C]
2 | C=C[C@@]1(C)CC(=O)[C@]2(O)[C@@]3(C)[C@@H](O)CCC(C)(C)[C@@H]3[C@H](O)[C@H](OC(C)=O)[C@@]2(C)O1 | active: 4.9 µM [sample A] and inactive [sample B]
3 | COC(=O)c1cccc(C(=O)OC)c1 | inactive [sample A] and active: 43.7 µM [sample B]
4 | CCCCCCCCCCCCCC[N+](C)(C)C | active: 27.5 µM [sample A] and inactive [sample B]
5 | C#CC1(O)CC[C@H]2[C@@H]3CCC4=CCCC[C@@H]4[C@H]3CC[C@@]21C (stereo not given in full) | active: 38.9 µM [sample A] and inactive [sample B]
